Test results taken from the supplement of paper PMC8728848.
This is one part of the list.

How the values were obtained:
Assay in all cases: glycan array binding signal (z-score within array); higher = stronger binding
Details in all cases: glycan notation: IUPAC condensed, linker removed
[1] = biological target: Neu5Ac(a2-6)Gal(b1-4)GlcNAc(b1-2)Man(a1-3)[GlcNAc(b1-2)Man(a1-6)]Man(b1-4)GlcNAc(b1-4)GlcNAc
Summary of the method: (§1)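 The binding signal is a Z-score computed within each array. Data were drawn from 3228 arrays in the Consortium for Functional Glycomics database, restricted to those with a known protein sequence. Scores were averaged over arrays of the same protein sequence at different concentrations or buffers, and over linkers, and negative values can be taken as non-binding.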

[2] = biological target: Neu5Ac(a2-6)Gal(b1-4)GlcNAc(b1-2)Man(a1-3)[GlcNAc(b1-2)Man(b1-4)GlcNAc(b1-2)Man(a1-6)]Man(b1-4)GlcNAc(b1-4)GlcNAc
Summary of the method: as §1

[3] = biological target: Neu5Ac(a2-6)Gal(b1-4)GlcNAc(b1-2)Man(a1-3)[Neu5Ac(a2-6)Gal(b1-4)GlcNAc(b1-2)Man(a1-6)]Man(b1-4)GlcNAc(b1-4)GlcNAc
Summary of the method: as §1

[4] = biological target: Neu5Ac(a2-6)Gal(b1-4)GlcNAc(b1-2)Man(a1-6)[Gal(b1-4)GlcNAc(b1-2)Man(a1-3)]Man(b1-4)GlcNAc(b1-4)GlcNAc
Summary of the method: as §1

[5] = biological target: Neu5Ac(a2-6)Gal(b1-4)GlcNAc(b1-2)Man(a1-6)[GlcNAc(b1-2)Man(a1-3)]Man(b1-4)GlcNAc(b1-4)GlcNAc
Summary of the method: as §1

[6] = biological target: Neu5Ac(a2-6)Gal(b1-4)GlcNAc(b1-3)Gal(b1-4)GlcNAc
Summary of the method: as §1

[7] = biological target: Neu5Ac(a2-6)Gal(b1-4)GlcNAc(b1-3)Gal(b1-4)[Fuc(a1-3)]GlcNAc(b1-3)Gal(b1-4)[Fuc(a1-3)]GlcNAc
Summary of the method: as §1

[8] = biological target: Neu5Ac(a2-6)Gal(b1-4)GlcNAc6S
Summary of the method: as §1

[9] = biological target: Neu5Ac(a2-6)GalNAc
Summary of the method: as §1

[10] = biological target: Neu5Ac(a2-6)GalNAc(b1-4)GlcNAc
Summary of the method: as §1

[11] = biological target: Neu5Ac(a2-8)Neu5Ac
Summary of the method: as §1

[12] = biological target: Neu5Ac(a2-8)Neu5Ac(a2-3)Gal(b1-4)Glc
Summary of the method: as §1

[13] = biological target: Neu5Ac(a2-8)Neu5Ac(a2-3)[GalNAc(b1-4)]Gal(b1-4)Glc
Summary of the method: as §1

[14] = biological target: Neu5Ac(a2-8)Neu5Ac(a2-8)Neu5Ac
Summary of the method: as §1

[15] = biological target: Neu5Ac(a2-8)Neu5Ac(a2-8)Neu5Ac(a2-3)Gal(b1-4)Glc
Summary of the method: as §1

[16] = biological target: Neu5Ac(a2-8)Neu5Ac(a2-8)Neu5Ac(a2-3)[GalNAc(b1-4)]Gal(b1-4)Glc
Summary of the method: as §1

[17] = biological target: Neu5Ac(a2-8)Neu5Ac(a2-8)Neu5Ac(a2-8)Neu5Ac(a2-3)[GalNAc(b1-4)]Gal(b1-4)Glc
Summary of the method: as §1

[18] = biological target: Neu5Ac(b2-6)Gal(b1-4)GlcNAc
Summary of the method: as §1

[19] = biological target: Neu5Ac(b2-6)GalNAc
Summary of the method: as §1

[20] = biological target: Neu5Ac9Ac(a2-6)Gal(b1-4)GlcNAc
Summary of the method: as §1

[21] = biological target: Neu5Gc(a2-3)Gal(b1-3)GlcNAc
Summary of the method: as §1

[22] = biological target: Neu5Gc(a2-3)Gal(b1-3)[Fuc(a1-4)]GlcNAc
Summary of the method: as §1

[23] = biological target: Neu5Gc(a2-3)Gal(b1-4)Glc
Summary of the method: as §1

[24] = biological target: Neu5Gc(a2-3)Gal(b1-4)GlcNAc
Summary of the method: as §1

[25] = biological target: Neu5Gc(a2-3)Gal(b1-4)[Fuc(a1-3)]GlcNAc
Summary of the method: as §1

[26] = biological target: Neu5Gc(a2-6)Gal(b1-4)GlcNAc
Summary of the method: as §1

[27] = biological target: Neu5Gc(a2-6)GalNAc
Summary of the method: as §1

[28] = biological target: Neu5Gc(b2-6)Gal(b1-4)GlcNAc
Summary of the method: as §1

B1: RfpB (Mycobacterium tuberculosum), O05594 (protein)
chain: MAAGLVTASMSLSTAVAHAGPSPNWDAVAQCESGGNWAANTGNGKYGGLQFKPATWAAFGGVGNPAAASREQQIAVANRVLAEQGLDAWPTCGAASGLPIALWSKPAQGIKHAGPSPNWDAVAQCESGGNWAANTGNGKYGGLQFKPATWAAFGGVGNPAAASREQQIAVANRVLAEQGLDAWPTCGA
glycan array binding signal (z-score) [1]: -0.499 | glycan array binding signal (z-score) [2]: -0.563 | glycan array binding signal (z-score) [3]: -0.289 | glycan array binding signal (z-score) [4]: -0.165 | glycan array binding signal (z-score) [5]: -0.536 | glycan array binding signal (z-score) [6]: -0.988 | glycan array binding signal (z-score) [7]: 1.58 | glycan array binding signal (z-score) [8]: -0.352 | glycan array binding signal (z-score) [9]: -0.605 | glycan array binding signal (z-score) [10]: -0.639 | glycan array binding signal (z-score) [11]: 0.607 | glycan array binding signal (z-score) [12]: -0.396 | glycan array binding signal (z-score) [13]: -0.281 | glycan array binding signal (z-score) [14]: 0.077 | glycan array binding signal (z-score) [15]: -0.52 | glycan array binding signal (z-score) [16]: -0.688 | glycan array binding signal (z-score) [17]: -0.552 | glycan array binding signal (z-score) [18]: -0.626 | glycan array binding signal (z-score) [19]: -0.419 | glycan array binding signal (z-score) [20]: 0.858 | glycan array binding signal (z-score) [21]: 0.456 | glycan array binding signal (z-score) [22]: -0.528 | glycan array binding signal (z-score) [23]: -0.323 | glycan array binding signal (z-score) [24]: -0.025 | glycan array binding signal (z-score) [25]: -0.209 | glycan array binding signal (z-score) [26]: -0.23 | glycan array binding signal (z-score) [27]: 0.7 | glycan array binding signal (z-score) [28]: 0.655
